Reference: PubChem BioAssay AID2101 (National Center for Advancing Translational Sciences (NCATS), 2009)
Hit rate of the full screen: of about 330,000 compounds, about 300 (0.091%) were called active. Inconclusive results, whose numbers are uncertain, are shown with a selection of clear calls. The call rests on the fitted dose curve; in most records, active means well fitted inhibition curve with a large enough effect; inconclusive means small, poorly fitted or top-dose-only effect, or effect the other way, or another doubt; inactive means no such curve, though single readings can be large or run the other way. Potencies of inconclusive entries are left out as doubtful fits.

Molecular target: Lysosomal acid glucosylceramidase (Homo sapiens) (UniProt P04062)
Experiment: qHTS Assay for Inhibitors and Activators of N370S glucocerebrosidase as a Potential Chaperone Treatment of Gaucher Disease;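 on activity change, negative = inhibition: 0% = full enzyme activity and -100% = no enzyme basal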
Conditions: N370S GC spleen homogenate, 4MU-glucoside fluorescence; activity change, negative = inhibition: at 59.4 µM (top of the series) unless noted
Potency means the concentration at half of the fitted maximal effect.

Structure (SMILES) | activity change, negative = inhibition | Potency
COc1cc(C(=O)Nc2cc3c(cc2N2CCCCC2)n(C)c(=O)n3C)cc(OC)c1OC | inactive: 12.8% | 
COc1cc2cc(CN(CCc3cccc(C)c3)C(=S)NCCCN3CCOCC3)c(=O)[nH]c2cc1OC |  | inconclusive [inhibitor, partial curve, poor fit]
CN(C)c1ccc(C(=S)NC2CCCCC2)cc1 |  | inconclusive [activator, partial curve]
Cc1csc(NC(=O)CSc2ncc(-c3ccccc3)[nH]2)n1 |  | inconclusive [activator, partial curve]
CCOC(=O)CSc1nnc(CNC(=O)c2cccs2)n1CCc1ccccc1 |  | inconclusive [inhibitor, full curve, poor fit]
COc1ccc2cccc(N3CCN(CCNC(=O)c4ccc(F)cc4)CC3)c2c1 |  | inconclusive [inhibitor, partial curve, poor fit]
COc1cccc(CN2CC34CC(c5ccc(C(C)=O)cc5)C(CC3S2(=O)=O)O4)c1 (stereo not drawn) | inactive: 4.12% | 
Cc1c(C)c2ccc(OCC(=O)c3ccccc3)cc2oc1=O | inactive: 3.09% | 
O=C1CC(C(=O)N2CCCc3ccccc32)CN1c1ccc(Cl)cc1 (stereo not drawn) |  | inconclusive [activator, single point]
Cc1ccc(-c2cc3cccc[n+]3cc2-c2ccc(C)cc2)cc1 |  | inconclusive [inhibitor, single point]
Cc1nnsc1C(=O)NNS(=O)(=O)c1ccccc1 | inactive: -8.66% | 
Cc1sc2nc(-c3cccnc3)[nH]c(=O)c2c1-c1ccccc1 |  | inconclusive [inhibitor, partial curve, poor fit]
Cc1cc(C(=O)OCCN2C(=O)c3ccccc3C2=O)c2ccccc2n1 |  | inconclusive [inhibitor, partial curve]
Cn1c(=O)n2n(c1=O)[C@H]1[C@H](O)[C@H]3O[C@@H]3/C(=N/OCc3ccccc3)[C@@H]1CC2 | inactive: 2.17% [at 12.8 µM] | 
COc1ccc(C(=O)Nc2nnc(-c3ccccc3)o2)cc1OC |  | inconclusive [inhibitor, full curve, poor fit]
CCn1c(C)nc2cc(C#N)ccc21 | inactive: 16% | 
CCCc1ccc(OCc2ccc(C(=O)N3CCSCC3)o2)cc1 |  | inconclusive [activator, single point]
C=CCCCCCCCCCBr | inactive: -6.04% | 
CCn1nccc1C(=O)Nc1cc(Cl)ccc1Cl | inactive: 3.35% | 
Cc1sc2nc(CN(C(=O)NC3CCCCC3)C3CCCCC3)[nH]c(=O)c2c1C | inconclusive: 37.4% [activator] | 
COc1cc([N+](=O)[O-])cc([N+](=O)[O-])c1NC(=O)N1CCOCC1 |  | inconclusive [inhibitor, full curve]
C#CCOCCOCCOCCNc1nc(N2CCN(C(=O)CCCCCCCCCCNC(=O)[C@H]([C@@H](C)CC)n3cc(CCCCCN)nn3)CC2)nc(N2CCN(C(=O)CCCCCCCCCCNC(=O)[C@H]([C@@H](C)CC)n3cc(CCCCN=C(N)N)nn3)CC2)n1 |  | active: 17.8 µM
O=C(N/N=C/c1ccco1)c1cc(-c2ccccc2)nc2ccccc12 |  | inconclusive [activator, single point]

Structure (SMILES) | activity change, negative = inhibition | Potency
CCc1cc(=O)oc2c3c(cc(OCC(=O)NCc4ccco4)c12)OC(C)(C)CC3 |  | inconclusive [activator, partial curve]
CCc1cc(=O)oc2c(CN3CCN(C)CC3)c(O)ccc12 |  | inconclusive [activator, partial curve]
CCN1CCN(C(=S)c2ccc(-c3ccccc3)cc2)CC1 |  | active: 11.2 µM
C=CCc1cc(C=O)cc(OCC)c1O |  | inconclusive [inhibitor, single point]
CN(C)CCCNC(=S)N(CCCN(C)C)Cc1cc2cc3c(cc2[nH]c1=O)OCO3 |  | inconclusive [activator, partial curve]
CN(C)C(=O)C1C2NC(=S)N(c3ccc(Cl)cc3)C1(C)Oc1ccc(Cl)cc12 (stereo not drawn) |  | inconclusive [activator, partial curve]
CCOC(=O)c1c(C)n(-c2ccc(C)cc2)c2ccc(OCC(O)CNCCCO)cc12 (stereo not drawn) |  | inconclusive [inhibitor, partial curve, poor fit]
Cc1cccc(NC(=O)CSc2nc(C3CC3)nc3ccccc23)c1 |  | inconclusive [activator, single point]
CCc1cccc(CC)c1N(COC)C(=O)Cn1c(CO)nc2ccccc21 |  | inconclusive [activator, partial curve]
Cc1ccc(C)c(N2CCN(C(=S)Nc3ccc4nc(N5CCN(C)CC5)cc(C)c4c3)CC2)c1 |  | inconclusive [inhibitor, single point]
O=C(c1cc(-c2ccc(Cl)c(Cl)c2)on1)N1CCCC1 | inactive: 26.3% | 
CC(C)C/C=C1\CCc2c([nH]c3ccccc23)C1=O |  | inconclusive [activator, full curve]
COc1ccc(S(=O)(=O)NCCCN2CCCC2=O)c(OC)c1 | inactive: -0.769% | 
N#Cc1c(NC(=O)c2ccc(Cn3cc(Br)cn3)o2)sc2c1CCCCCC2 |  | inconclusive [activator, partial curve]
c1ccc(N2CCN(c3nnnn3-c3ccccc3)CC2)cc1 |  | inconclusive [activator, partial curve]
COc1ccc(CCNC(=O)/C=C/c2ccc(OC)c(S(=O)(=O)N3CCOCC3)c2)cc1 | inactive: 2.06% | 
CSc1nc2c(cc1C#N)CCCCC2 |  | inconclusive [activator, partial curve, poor fit]
CCCC[C@H]1CCCO[C@@](C(=O)NCc2ccc(C)o2)(C(F)(F)F)C1 | inactive: -0.66% | 
COc1ccccc1NC(=O)CSc1nc2sc3c(c2c(=O)n1-c1ccccc1)CCN(C)C3 |  | inconclusive [activator, partial curve]
O=C(CSc1nncs1)N1c2ccccc2Sc2ccccc21 | inactive: 12.2% | 
COc1cccc(C(=O)Nc2nc3c(s2)CN(C)CC3)c1 | inactive: 7.11% | 
Cc1ccc(Cl)cc1NC1=C/C(=N\S(=O)(=O)c2cccs2)c2ccccc2C1=O |  | inconclusive [activator, partial curve]
COCCCNC(=S)N/N=C/c1ccc(OC)cc1 | inactive: 4.97% | 

Structure (SMILES) | activity change, negative = inhibition | Potency
CCN1CCCc2cc(CN(CCN3CCOCC3)C(=O)Nc3ccc(C)c(C)c3)ccc21 | inactive: -18.6% | 
COC(=O)C1=C(C)NC2=C(C(=O)CCC2)C1c1cccc(C)n1 (stereo not drawn) |  | inconclusive [activator, single point]
COC(=O)c1ccc(NC(=O)CN2C(=O)CC(C)S(=O)(=O)c3ccccc32)cc1 (stereo not drawn) |  | inconclusive [activator, partial curve]
COc1cc2c(cc1OC)C(/C=C/c1ccc(OC)c(OC)c1OC)=NCC2 | inactive: 2.31% | 
Cc1ccc(N(CC(=O)NC2CCCC2)C(=O)CNC(=O)c2cccs2)cc1C |  | inconclusive [inhibitor, partial curve, poor fit]
Cc1nc2ccccc2nc1OCC(=O)N1CCN(c2ccccc2)CC1 |  | inconclusive [inhibitor, single point]
CC(C)(C)OC(=O)NCCCC[C@H](NC(=O)c1[nH]cnc1C(=O)Nc1ccc(Cl)cc1)C(=O)OC(C)(C)C |  | inconclusive [activator, partial curve]
COc1cc(NC(=O)CSc2nc3ccccc3cc2Cc2ccccc2)cc(OC)c1 |  | inconclusive [activator, partial curve, poor fit]
CC(C)Cn1cnc2c(c1=O)c1nc3ccccc3nc1n2Cc1ccc2c(c1)OCO2 |  | inconclusive [activator, partial curve]
O=C(OC(C(=O)Nc1cccc(C(F)(F)F)c1)c1ccccc1)C1CCCCC1 (stereo not drawn) |  | inconclusive [activator, partial curve]
COC(=O)c1cc(S(=O)(=O)NCC2CCN(Cc3cccc(F)c3)CC2)cn1C |  | inconclusive [inhibitor, partial curve]
c1ccc(-c2nc3cnccn3c2Nc2ccc3c(c2)OCCO3)cc1 | inactive: -9.09% | 
CCN1CCN(Cc2ccc(NC(=O)c3ccc(C)c(NC(=O)c4c[nH]c5cc(C(F)(F)F)ccc5c4=O)c3)cc2C(F)(F)F)CC1 |  | inconclusive [inhibitor, partial curve]
CCN1CCN(c2nc(-c3cccs3)nc3ccccc23)CC1 | inactive: 8.55% | 
C=CCOc1c(Br)cc(/C=N/NC(N)=O)cc1OC | inconclusive: 30.5% [activator] | 
COc1cc(CNCCc2c[nH]c3ccccc23)ccc1OCc1ccccc1F |  | inconclusive [inhibitor, single point]
CSc1ccc(/C=N/n2c(C)nnc2C)cc1 | inactive: -21.6% | 
Nc1ccc2oc(-c3cc(Br)ccc3Cl)nc2c1 |  | inconclusive [inhibitor, full curve, poor fit]
CCOC(=O)c1ccc(COC(=O)CCc2nc3ccccc3[nH]c2=O)o1 | inactive: 6.46% | 
CCOC(=O)N1CCC(n2c(SCC(=O)Nc3ccccc3OC)nc3ccccc3c2=O)CC1 |  | inconclusive [activator, partial curve]
NC(=O)c1nsc(C(=O)N(c2cccc(F)c2)C(C(=O)NC2CCCC2)c2ccc(O)cc2)c1N (stereo not drawn) |  | inconclusive [activator, single point]
N/C(=N\OS(=O)(=O)c1ccc2ccccc2c1)c1ccncc1 |  | inconclusive [inhibitor, single point]
